Screen size: about 140,000 compounds; about 240 (0.17%) were called active. Inconclusive results, whose numbers are uncertain, are shown with a selection of clear calls. Calls follow the shape of the dose curve; as a rule, active = well fitted inhibition curve with a large enough effect; inconclusive = small, poorly fitted or top-dose-only effect; inactive = no such curve, though single readings can be large or run the other way. A potency beside an inconclusive call is a rough fit, not a confirmed value.
test: Primary qHTS assay for inhibitors of alpha-synuclein gene (SNCA) expression; conditions: HEK-293 SNCA-luciferase knock-in, luminescence, 24 h; series mostly up to 57.2 µM; also: nearly all actives have a fitted effect of over 45% in size
Potency is read from the fitted curve at half-maximal effect; tags tell the direction and shape of the fitted curve.

SMILES	Potency
Cc1nc2cccnc2n1-c1cccc(C(=O)N2CCN(c3cccc(Cl)c3)CC2)c1	inconclusive: 35.5 µM [inhibitor, single point]
Cc1ccc(C)c(N2CCN(S(=O)(=O)c3cc(-c4cc(C)no4)ccc3C)CC2)c1	inconclusive: 10 µM [inhibitor, partial curve]
O=C(NCC1(O)CCCNCC1)c1ccc(-n2cnnc2)cc1 (stereo unspecified)	inactive
Cc1ccc2c(c1)sc1nc(-c3cc4ccccc4oc3=O)cn12	inconclusive: 1.12 µM [inhibitor, full curve, poor fit]
Cc1ccccc1-c1nccn2c(C3CN(Cc4ccc(O)cc4)C3)ncc12	inactive
CC[C@H]1CN2CCc3cc(OC)c(OC)cc3[C@H]2C[C@@H]1C[C@@H]1NCCc2cc(OC)c(OC)cc21	active: 0.607 µM
Cc1sc2ccn(CC(C)C)c(=O)c2c1C(=O)N1CCC(C)CC1	inactive
Cc1ccsc1C(=O)N1CCC(n2cnnc2-c2ccccc2)C1 (stereo unspecified)	inconclusive: 14.1 µM [inhibitor, partial curve, poor fit]
CCCNC(=O)CCc1ccc2c(c1)CN(C(=O)NCC)CCO2	inactive
O=C(Cn1cnnn1)N1CCC2(CCCNC2=O)C1 (stereo unspecified)	inconclusive: 14.1 µM [inhibitor, partial curve, poor fit]
COc1cccc([S+](=O)([O-])NC[C@@H]2CC[C@H]3C[C@@H]2C3(C)C)c1	active: 7.08 µM
Cc1nn(CCC(=O)N[C@H]2CC[C@H]2NC2CCCCC2)c(C)c1C	inactive
O=C(c1ccc2c(c1)N(Cc1ccc(Cl)cc1)C(=O)c1ccccc1S2=O)N1CCN(c2ccccc2F)CC1 (stereo unspecified)	inconclusive: 39.8 µM [inhibitor, single point]
Cn1cccc1CN1CCC2(C1)C(=NC1CCCCC1)NC(=O)N2c1cccnc1 (stereo unspecified)	inconclusive: 1.58 µM [inhibitor, partial curve, poor fit]
CSc1cccc(NC(=O)C2CCN(c3ncnc4c3nc3n4CCCCC3)CC2)c1	inconclusive: 39.8 µM [inhibitor, single point]
O=C(Cc1ccccc1)Nc1c(C(=O)N2CCN(c3ccc(F)cc3)CC2)oc2ccccc12	inconclusive: 10 µM [inhibitor, partial curve, poor fit]
COc1ccc(CNc2ccc3cc(S(=O)(=O)N4CCCCC4)ccc3n2)cc1	inconclusive: 22.4 µM [inhibitor, single point]
CCC(=O)N1CCCc2cc(S(=O)(=O)N3CCC(C(=O)Nc4ccc(F)c(F)c4)CC3)ccc21	inconclusive: 28.2 µM [inhibitor, single point]
Cc1ccc(CNC(=O)CN(c2ccc(C(C)C)cc2)S(=O)(=O)c2c(C)n[nH]c2C)cc1	inconclusive: 28.2 µM [inhibitor, single point]
Cc1cc(C)c2c(=O)c3c(oc2c1)C(=O)N(Cc1ccc(F)cc1)C3c1cccc(O)c1 (stereo unspecified)	inconclusive: 39.8 µM [inhibitor, single point]
O=C(c1ccc2nccn2c1)N(Cc1c(F)cccc1Cl)C1CC1	inconclusive: 0.708 µM [inhibitor, single point]

SMILES	Potency
Cc1cc(C(=O)NCC2Cn3cccc3C(=O)N2Cc2ccccc2)n(C)n1 (stereo unspecified)	inconclusive: 14.1 µM [inhibitor, partial curve, poor fit]
O=c1c(-c2ccc(F)c(F)c2)nc2cncnc2n1C1CC1	inconclusive: 2.24 µM [inhibitor, full curve, poor fit]
CN1CCc2c([nH]c3ccccc23)C12CCN(C(=O)c1ccc3ncccc3c1)CC2	inconclusive: 25.1 µM [inhibitor, partial curve, poor fit]
Cc1ccc(NC(=O)CN2CCCN(Cc3ccccc3Cl)S2(=O)=O)c(C)c1	inconclusive: 14.1 µM [inhibitor, partial curve, poor fit]
CCOCCc1nn2c(=O)cc(COC(=O)COc3ccccc3Cl)nc2s1	inconclusive: 7.08 µM [inhibitor, single point]
CCCCCC(=O)Nc1nc2c(s1)C[C@@H]1[C@](C)(CO)[C@H](O)CC[C@@]1(C)[C@@H]2CC(=O)N1CCCCC1	inconclusive: 12.6 µM [inhibitor, partial curve]
CCCC(=O)Nc1ccccc1-c1cccc(NC(C)=O)c1	inactive
c1ccc(-c2nnc([C@H]3CCN(Cc4ccc5c(c4)OCO5)C3)o2)cc1	inconclusive: 3.98 µM [inhibitor, single point]
COCCc1noc(-c2ccc(N(C)Cc3ccnc(C)c3)nc2)n1	inconclusive: 3.98 µM [inhibitor, single point]
Cc1ccc(C)c(S(=O)(=O)N2CCCN(C)c3ccccc32)c1	inconclusive: 10 µM [inhibitor, partial curve, poor fit]
Cc1cc(C)cc(-n2ccnc2SCC(=O)Nc2nc3ccccc3s2)c1	inactive
COc1cccc(-c2cn3cc(C(=O)N(C)C)nc3s2)c1	inconclusive: 31.6 µM [inhibitor, single point]
O=C(C1CCCN1C(=O)c1ccccc1Cl)N1CCC(c2ccccc2)CC1 (stereo unspecified)	inconclusive: 22.4 µM [inhibitor, single point]
COc1cccc(CNC(=O)c2ccc3nnc(-c4cc[nH]c4)n3c2)c1	inactive
CCC1Oc2ccc(NC(=O)c3ccc(OC)c(OC)c3)cc2CN(Cc2ccc(Cl)cc2)C1=O (stereo unspecified)	inconclusive: 3.55 µM [inhibitor, full curve]
O=C(NCc1cccnc1)[C@@H]1C[C@@H](O)CN1C1CCN(C(=O)c2cccs2)CC1	inactive
Cc1ccc(CN2CC(Oc3ccc(-c4noc(-c5cccnc5)n4)cc3)C2)o1	inactive
CN(C)c1ccc2nc3ccc(=[N+](C)C)cc-3sc2c1	inactive
CCN(C(=O)Cn1cc(S(=O)(=O)Cc2ccccc2Cl)c2ccccc21)c1ccccc1	inconclusive: 12.6 µM [inhibitor, partial curve, poor fit]
O=C(c1nnc(COc2cccc(N3CCOCC3)c2)n1Cc1ccccc1)N1CCC[C@@H]1c1ccc(Br)cc1	inconclusive: 14.1 µM [inhibitor, partial curve, poor fit]

From PubChem BioAssay AID1671194 (National Center for Advancing Translational Sciences (NCATS), 2021)
